44 sequences from the supplement of paper PMC11417369 can be followed below.

Some of the results follow.

The assay concerns PfHDP1 homeodomain (GST-tagged). Nature of the assay: gcPBM binding intensity (ln(normalized median fluorescence intensity)); higher = stronger DNA binding. The method in brief:
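DNA-binding domains from P. falciparum, fused to GST and produced in E. coli, were put on an Agilent 4 × 180k double-stranded probe array for 1 h in 1× PBS holding 1% milk, 0.2 mg/ml BSA, 0.5% salmon testes DNA and 0.03% Triton X-100. Probes were primer-extended, 36 bp long and drawn from intergenic genomic regions, with negative controls included. After Alexa488 anti-GST antibody detection and a 488 nm scan, binding intensity was set as the highest Masliner-normalised natural-log median intensity across replicate spots of either probe orientation.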
Take “AAATGACTATATAAAAGTACTAGAAAGTATAAATAT [XGTACX_site944]”: the “gcPBM binding intensity (ln)” value was 6.58. The figure for “TCTAATACACAATGTTGTACATATTAATATATATGT [XGTACX_site2931]” is 7.25; for “ATCATTCTTAAACCGTGTACTTATTATTTTTTTTTT [XGTACX_site2798]” it is 6.88. With “TATTTTTTACATTCGTGTACGCATTTTTGTGAATTT [XGTACX_site5339]”, the “gcPBM binding intensity (ln)” value amounted to 6.48. As for “AAAAATAGAGCAGCTCTCATATTTTTATGTGCAATA [CACACA_negctrl_site837]”, the figure is 10.6. The figure for “ACAAAAATATTTGTAAAAAGAAATATAAATAAATAA [TGCATGCA_negctrl_site357]” is 6.47; for “TATTACACACAATATTGTACACATAGGAAAAATATT [XGTACX_site1726]” it is 7.01.

Turning to “GCATTTATGAAAAATGTACACACATCAAATGCTTAT [CACACA_site9347]”, the “gcPBM binding intensity (ln)” value came out at 6.48. The figure for “AGGATATATTATATGTACACACACATATAAGGGATT [GTGCAC_negctrl_site47]” is 6.52. Consider “AAGGTATAGAAACACACACACGTGAATATAGTTTAA [CACACA_site5109]”, for which the “gcPBM binding intensity (ln)” value came out at 6.59. As for “CGTTATATAATAAAGGTGCATAGATATATCATTATA [GTGCAC_site9774]”, the figure is 7.86; as for “TATATAACATATATATGTACACATAATATCAGATTT [XGTACX_site1041]”, 6.59. The figure for “TATATATGTATATATTGTACTTTAAGACAAATATAT [XGTACX_site1052]” is 6.36; for “TTCTTAAATATATTCAACATACATAATATATAATCT [CACACA_negctrl_site1806]” it is 6.53; for “AATATTTTTCAATTTCATGTGCATTCATTGAAGTTA [CACACA_negctrl_site1232]” it is 9.18. “TAATTGTAGACATGCACACACAAATATTATATATGT [CACACA_site845]”: the “gcPBM binding intensity (ln)” value came to 8.16. The figure for “TAATTTTTTTTAAACACACACATTACATTCAAAAAT [CACACA_site127]” is 6.49; for “TTTCAAATATATATAGCACACAAGGTATAATATAAA [CACACA_site877]” it is 6.38; for “TTCACTAATAAATACGCACACATATACATATATATA [CACACA_site1383]” it is 7.62. Regarding “ATATAAAAAAGGGAGGTAAATGAATGTGAAACCCAA [GTGCAC_negctrl_site359]”, the “gcPBM binding intensity (ln)” value was determined as 6.62. As for “TTTTAATTAGTACAAACACACATATACACCCAAAAA [CACACA_site5422]”, the figure is 7.38; as for “CTAATATAGGTATGCACACACAATATGTACATATTT [CACACA_site7558]”, 9.3.

Consider “AATATATATATATATCCACACACATACATATATTAA [CACACA_site7907]”, for which the “gcPBM binding intensity (ln)” value was found to be 6.69. The figure for “TACATAAAAATATATGCATGTTCTTATTTAATAAAA [TGCATGCA_site743]” is 6.21; for “ATGGTTTTTATTTTATGTACTTACTAAAATGAATAA [XGTACX_site4317]” it is 6.4; for “ATGTTTAAATTTTTCAGTACATATATTCTAGTAAAA [XGTACX_site1010]” it is 6.3. The figure for “GAATATGTTAACATTTGTACATAAAATTTTTTACAA [XGTACX_site2444]” is 6.51; for “GATATATTACTTAAAATACACACCATGGAAAAGTTT [CACACA_site2606]” it is 6.52.

Regarding “CATATAAAAGGACACACACACACATATATATATATA [CACACA_site4674]”, the “gcPBM binding intensity (ln)” value is 9.09. As for “TATTTTATTTTTTGTTGTACATATATATTATATATA [XGTACX_site4513]”, the figure is 6.89; as for “ATATGTAAAATATGGTGTACAATCAAATAAAAAAAA [XGTACX_site6270]”, 6.73; as for “ATTAATATATTTACCACACACCCATTTCGATTTTAT [CACACA_site3605]”, 6.89. The figure for “ATATATATATATAGTAGTACTCTCTCTGTATATATA [XGTACX_site3754]” is 9.1.

“ATTTAGAAAAATAAAACACACATATATCTGTAAATA [CACACA_site6119]”: the “gcPBM binding intensity (ln)” value stood at 6.53. As to “TATACATAAAAAAATTTTACCAGGTTAATACAAATA [CACACA_negctrl_site1171]”, the “gcPBM binding intensity (ln)” value was 6.65.

Take “TTCCTTTGTTGTCGTTGTACTTATATGGTTATAATT [XGTACX_site3082]”: the “gcPBM binding intensity (ln)” value is 7.51. As for “TACCTTATGTTATATACACACATATAACATAATATA [CACACA_site6741]”, the figure is 6.76; as for “ACTATATTTCATAACAGTACATATTCCTGAAACATC [XGTACX_site4924]”, 6.43; as for “CATGCTTATATGTGCACACACAAAAGAAAAGAAAAA [CACACA_site1655]”, 11. As for “ACAATATAAAAAAATTGTACATAATATATAATATTA [XGTACX_site1040]”, the figure is 6.35; as for “AAAAAAATCTCCAGTGTGCACAATCACATAATATAT [GTGCAC_site9833]”, 10.8.

As for “GAGATAAAATAAAACACACACATATATATATAGAAT [CACACA_site2197]”, the “gcPBM binding intensity (ln)” value was determined as 7.03.

Turning to “TATAAGCTAAGTTGTTGTACAAAAAGGAAAAGTATA [XGTACX_site3741]”, the “gcPBM binding intensity (ln)” value was 7.5. As to “TGTTACATAAAATGCACACTTTCAAATATGCTAATA [CACACA_site2925]”, the “gcPBM binding intensity (ln)” value stood at 9.73.
